# Measured values: PubChem BioAssay AID904 (National Center for Advancing Translational Sciences (NCATS), 2007)
# Hit rate of the full screen: of about 55,000 compounds, about 530 (0.96%) were called active. The shares of active, inactive and inconclusive entries below differ from those in the screen. Calls follow the shape of the dose curve; as a rule, active = well fitted cell-killing curve with a large enough effect; inconclusive = small, poorly fitted or top-dose-only effect; inactive = no such curve, though single readings can be large or run the other way. Where the call is inconclusive, the potency comes from a doubtful curve fit.
# Assay: qHTS Screen for Compounds that Selectively Target Cancer Cells with p53 Mutations: Cytotoxicity of p53 Null Cells at the Nonpermissive Temperature; also: nearly all actives have a fitted effect of over 50% in size;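 as to activity, negative = cell killing: 0% = DMSO only and -100% = full killing by 100 µM tamoxifen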
# Conditions: H1299 p53-null (neo) cells, 39C, ATPlite viability, 24 h; activity, negative = cell killing: at 46.1 µM (top of the series)
# In short: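 Cells seeded at 600/well, 37C overnight. Compound added (up to 46 uM), plates shifted to 39C for 24 hr. ATPlite added, luminescence read after 20 min at room temperature.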
# Potency is read from the fitted curve at half-maximal effect; tags tell the direction and shape of the fitted curve.
Structure (SMILES),Potency,"activity, negative = cell killing"
Cc1cc(C)c(NC(=O)C2CCN(c3nc4ccccc4n4cccc34)CC2)c(C)c1,"inconclusive: 25.1 µM [cytotoxic, single point]",
COc1cc2ccccc2cc1C(=O)Nc1cccc(-c2nc3cc(C)c(C)cc3o2)c1,,inactive: 8.23%
Cc1cccc(NC(=O)c2ccc(-c3ccccc3)s2)c1,"inconclusive: 15.8 µM [cytotoxic, partial curve]",
COc1ccc(C2c3cc(OC)c(OC)cc3CC(=O)N2c2ccc(C)cc2)cc1 (centres undefined),"inconclusive: 0.794 µM [cytotoxic, full curve, poor fit]",
Cc1ccc(C)c(CN2C(=O)c3ccccc3S(=O)(=O)c3ccc(C(=O)OCC4CCCO4)cc32)c1 (centres undefined),"inconclusive: 3.55 µM [cytotoxic, single point]",
Cc1cc(O)c(C(c2cccc(F)c2)N2CCN(c3ccccc3)CC2)c(=O)n1Cc1ccco1 (centres undefined),"inconclusive: 0.005 µM [cytotoxic, full curve, poor fit]",
COC(=O)c1c(NC(=O)CCCOc2cccc(C)c2)sc2c1CCC2,,inactive: 2.27%
CN(c1ccccc1)S(=O)(=O)c1ccc(NC(=O)c2nc(S(C)(=O)=O)ncc2Cl)cc1,"inconclusive: 31.6 µM [cytotoxic, single point]",
COc1ccc(Cl)cc1NC(=O)c1cc2c(=O)n3ccccc3nc2s1,active: 12.6 µM,
COc1ccc(Cn2c(CCC(=O)NCc3ccc(Cl)cc3)nc3cccnc32)cc1,"inconclusive: 31.6 µM [cytotoxic, partial curve]",
CCOC(=O)COc1ccc(C2C(C(=O)OC)=C(C)NC3=C2C(=O)c2ccccc23)cc1Cl (centres undefined),"inconclusive: 14.1 µM [cytotoxic, single point]",
COc1ccccc1C1c2c(-c3ccc(Cl)cc3)n[nH]c2C(=O)N1c1ccc(C)cc1 (centres undefined),"inconclusive: 22.4 µM [cytotoxic, single point]",
N#Cc1ccc(-c2cccs2)nc1SCC(=O)Nc1cccc(C(F)(F)F)c1,"inconclusive: 0.501 µM [cytotoxic, full curve, poor fit]",
Cc1cccc(NC(=O)C2CCCN(S(=O)(=O)c3ccc(Br)s3)C2)c1 (centres undefined),"inconclusive: 25.1 µM [cytotoxic, single point]",
COc1ccc(CNC(=O)c2ccc3nc(C(C)C)oc3c2)cc1OC,,inactive: 0.608%
COc1cccc(NC(=O)c2oc3ccccc3c2NC(=O)c2cc3ccccc3o2)c1,"inconclusive: 0.005 µM [cytotoxic, full curve, poor fit]",
Cc1cccc(NC(=O)CSc2nc3c(sc4ccccc43)c(=O)n2CCCC(=O)NC2CCCC2)c1,,inactive: -3.69%
COc1cc(NC(=O)NCCN2CCN(c3ccccc3)CC2)cc(OC)c1OC,"inconclusive: 31.6 µM [cytotoxic, single point]",
Cc1ccc(C(=O)Nc2ccc(S(=O)(=O)Nc3onc(C)c3C)cc2)cc1,"inconclusive: 12.6 µM [cytotoxic, partial curve]",
CCOc1ccc(S(=O)(=O)NCCc2csc3nc(-c4ccc(F)cc4)nn23)cc1,"inconclusive: 5.01 µM [cytotoxic, partial curve]",
N#Cc1c(-n2ncnc2-c2ccccc2C(F)(F)F)sc2c1CCCCC2,"inconclusive: 0.794 µM [cytotoxic, partial curve]",
O=C(Nc1ccc(Br)cc1)C(Cc1ccccc1)NS(=O)(=O)c1cccc2nsnc12 (centres undefined),,inactive: 0.0138%

Structure (SMILES),Potency,"activity, negative = cell killing"
COc1cccc(NC(=O)c2oc3ccccc3c2NC(=O)Cc2cccc(C)c2)c1,"inconclusive: 2 µM [cytotoxic, partial curve, poor fit]",
Cc1ccc(C)c(CN2C(=O)C(O)(c3c[nH]c4ccccc34)c3ccccc32)c1 (centres undefined),"inconclusive: 31.6 µM [cytotoxic, single point]",
CCOc1ccc(Nc2nc(Nc3ccc(OCC)cc3)nc(N3CCOCC3)n2)cc1,,inactive: -0.136%
COc1ccc(NC(=O)c2nc(S(=O)(=O)Cc3ccc(C)cc3)ncc2Cl)cc1,"inconclusive: 31.6 µM [cytotoxic, partial curve]",
CCOc1ccccc1NC(=O)CN1C(=O)C(=O)c2ccccc21,"inconclusive: 10 µM [cytotoxic, partial curve]",
O=C(NCCCN1CCN(c2cccc(Cl)c2)CC1)c1nnc(Cc2ccc(F)cc2Cl)o1,"inconclusive: 22.4 µM [cytotoxic, single point]",
Cc1ccc(N2C(=O)C(CC(=O)Nc3ccccc3)N(CCC3=CCCCC3)C2=O)cc1 (centres undefined),"inconclusive: 20 µM [cytotoxic, single point]",
O=C(CCS(=O)(=O)c1nc(-c2cccs2)cc(C(F)(F)F)n1)Nc1cccc(O)c1,,inactive: 91%
Cn1c(-c2ccccc2)cnc1SCC(=O)N1CCCCC1,"inconclusive: 22.4 µM [cytotoxic, single point]",
CC(C)c1ccc(OCC(=O)Nc2cc(-c3nc4ncccc4o3)ccc2Cl)cc1,,inactive: -10.9%
CCc1ccc(CNC(=O)C2CCN(c3nnc(-n4c(C)ccc4C)s3)CC2)cc1,"inconclusive: 31.6 µM [cytotoxic, single point]",
N#Cc1ccccc1NC(=O)C(=O)NCC(c1cccnc1)N1CCN(c2ccccc2)CC1 (centres undefined),"inconclusive: 35.5 µM [cytotoxic, single point]",
Cc1cccc(C(=O)Nc2cccc(C(=O)OCc3cc(=O)n4nc(C5CC5)sc4n3)c2)c1,"inconclusive: 0.631 µM [cytotoxic, single point]",
CCOc1ccc(-c2nonc2NC(=O)c2oc3cc(Br)ccc3c2C)cc1,"inconclusive: 3.16 µM [cytotoxic, single point]",
CCC(C)Nc1nc(OC(C(F)(F)F)C(F)(F)F)nc(OC(C(F)(F)F)C(F)(F)F)n1 (centres undefined),"inconclusive: 35.5 µM [cytotoxic, partial curve, poor fit]",
CN(C)c1ccc(CNC(=O)C(Cc2ccccc2)NS(=O)(=O)c2ccc3c(c2)oc(=O)n3C)cc1 (centres undefined),,inactive: -6.27%
COc1cccc(CCNc2ncnc3c2nnn3C)c1,"inconclusive: 2.82 µM [cytotoxic, partial curve, poor fit]",
COC(=O)c1ccc(C(=O)OC)c(NC(=O)c2c(-c3ccccc3)c(-c3ccccc3)nn(C)c2=O)c1,,inactive: -0.338%
COc1cccc(CNc2nc3ccccc3n2CCN2CCCCC2)c1OC,,inactive: -24.2%
Cc1ccc(C)c(CSc2nc3ccncc3n2Cc2nc(-c3ccccc3Cl)oc2C)c1,"inconclusive: 35.5 µM [cytotoxic, single point]",
O=C(Cn1c(=O)nc(-c2ccccc2)c2cc(Cl)ccc21)NCCCc1ccccc1,,inactive: -3.77%
Cc1cccc(C)c1NC(=O)CN(C)S(=O)(=O)c1ccc2c(c1)n(C)c(=O)c(=O)n2C,"inconclusive: 1.26 µM [cytotoxic, full curve, poor fit]",

Structure (SMILES),Potency,"activity, negative = cell killing"
COc1cccc(NC(=O)C2CCN(S(=O)(=O)c3cc(-c4noc(C)n4)ccc3C)CC2)c1,,inactive: 10.3%
CCOc1cc(C2c3c(oc4ccccc4c3=O)C(=O)N2Cc2ccccc2Cl)ccc1O (centres undefined),,inactive: -3.04%
CCOC(=O)N1CCc2c(sc(NCc3sccc3C)c2C(=O)Nc2ccccc2OCC)C1,,inactive: 6.77%
CC(C)c1nnc(NC(=O)c2nc(S(=O)(=O)Cc3ccccc3)ncc2Cl)s1,"inconclusive: 31.6 µM [cytotoxic, single point]",
Cc1ccnc(NS(=O)(=O)c2ccc(NC(=O)c3nc(SC(C)C)ncc3Cl)cc2)n1,"inconclusive: 35.5 µM [cytotoxic, partial curve, poor fit]",
CCCN(CCC)CCNC(=O)C1CCN(c2nc3ccc(CC)cc3s2)CC1,"inconclusive: 12.6 µM [cytotoxic, partial curve]",
O=C(Nc1ccc(C(=O)N2CCN(c3ccccc3)CC2)cc1)c1nsc2ccccc12,"inconclusive: 0.0063 µM [cytotoxic, full curve]",
Cc1ccc(C)c(NC(=O)Nc2cccc(-c3cn4cccnc4n3)c2)c1,"inconclusive: 0.158 µM [cytotoxic, full curve, poor fit]",
COCCCNC(=O)C1CCCN(c2nn3cc(-c4ccc(C)cc4)nc3s2)C1 (centres undefined),"inconclusive: 12.6 µM [cytotoxic, single point]",
Cc1ccc(-c2nc3cc(C(C)C)ccc3o2)cc1NC(=O)c1cc([N+](=O)[O-])ccc1N1CCOCC1,"inconclusive: 20 µM [cytotoxic, partial curve]",
Cc1ccc(CNC(=O)CCC(=O)N2CCSc3ccccc32)cc1,,inactive: -4.47%
Brc1ccc2nc(SCCOc3ccccc3)[nH]c2c1,"inconclusive: 35.5 µM [cytotoxic, single point]",
O=C(Cn1c(=O)n(-c2ccccc2)c(=O)c2sc3ccccc3c21)NC1CCCC1,"inconclusive: 31.6 µM [cytotoxic, single point]",
CSc1ccc(CNC(=O)Cn2ccc3cc(S(=O)(=O)N4CCCC4)ccc32)cc1,"inconclusive: 35.5 µM [cytotoxic, single point]",
COc1cccc(NC(=O)Cn2c(=O)n(Cc3ccco3)c(=O)c3cc(OC)c(OC)cc32)c1,,inactive: -10.1%
O=C(Nc1ccc2nc(SCC(=O)N3CCOCC3)sc2c1)c1ccccc1Cl,"inconclusive: 39.8 µM [cytotoxic, single point]",
Cc1ccn2c(Nc3ccccc3C)c(-c3ccccc3)nc2c1,"inconclusive: 10 µM [cytotoxic, partial curve]",
Cn1c(=O)n(C)c2cc(N3CCCCC3)c(NC(=O)c3c(F)cccc3F)cc21,,inactive: -3.56%
Cc1cccc(N2CCN(c3ncnc4onc(C)c34)CC2C)c1 (centres undefined),"inconclusive: 31.6 µM [cytotoxic, single point]",
Cc1ccc(-n2c(-c3ccco3)nc3c(cnn3-c3ccc(C)cc3)c2=O)cc1,,inactive: 7.97%
